{"source": "PubChem BioAssay AID2147", "about": "(National Center for Advancing Translational Sciences (NCATS), 2009)", "note": "Screen size: about 230,000 compounds; about 3,600 (1.6%) were called active. This list was built around the results that the source calls inconclusive (neither active nor inactive); the mix of calls is not that of the screen. Calls follow the shape of the dose curve; as a rule, active = well fitted inhibition curve with a large enough effect (not every such curve was filed as active); inconclusive = small, poorly fitted or top-dose-only effect, or another doubt; inactive = no such curve, though single readings can be large or run the other way. Potencies of inconclusive entries are doubtful fits and often do not repeat. Also: nearly all actives have a fitted effect of over 50% in size.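 For activity change, negative = inhibition in this document: 0% = wells with enzyme and -100% = buffer wells without enzyme.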 Potency is read from the fitted curve at half-maximal effect; tags tell the direction and shape of the fitted curve."}
{"molecular_target": "Lysine-specific demethylase 4E (Homo sapiens) (UniProt B2RXH2)", "sequence (B2RXH2 whole entry, looked up, the tested form may be a part)": "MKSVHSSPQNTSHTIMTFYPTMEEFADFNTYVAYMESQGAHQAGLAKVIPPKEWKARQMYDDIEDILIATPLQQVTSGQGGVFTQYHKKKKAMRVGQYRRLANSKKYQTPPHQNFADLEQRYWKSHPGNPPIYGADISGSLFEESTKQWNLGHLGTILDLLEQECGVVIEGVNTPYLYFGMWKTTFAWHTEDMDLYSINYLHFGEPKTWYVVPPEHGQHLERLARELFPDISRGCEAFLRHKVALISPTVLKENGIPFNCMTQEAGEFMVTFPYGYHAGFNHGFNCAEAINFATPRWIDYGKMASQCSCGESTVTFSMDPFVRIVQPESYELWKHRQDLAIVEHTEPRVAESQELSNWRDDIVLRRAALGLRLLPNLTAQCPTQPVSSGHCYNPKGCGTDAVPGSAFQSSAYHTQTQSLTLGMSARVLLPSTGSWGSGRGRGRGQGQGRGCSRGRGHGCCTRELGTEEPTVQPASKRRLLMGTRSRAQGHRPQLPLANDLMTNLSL", "assay": "qHTS Assay for Inhibitors of Human Jumonji Domain Containing 2E (JMJD2E)", "conditions": "JMJD2E catalytic domain, FDH-coupled NADH fluorescence (FDH is formaldehyde dehydrogenase); series mostly up to 57.1 µM; activity change, negative = inhibition: at the top concentration"}
{"smiles": "Oc1ccc(F)cc1-c1cc(-c2ccc3c(c2)OCCO3)n[nH]1", "activity change, negative = inhibition": "inactive: -10.1%"}
{"smiles": "S=c1[nH]ccn1-c1cccc(Cl)c1", "activity change, negative = inhibition": "inactive: -4.02%"}
{"smiles": "Cc1cc(=O)oc2cc(OCCSCCN3CCCCC3)ccc12", "Potency": "inconclusive: 15.8 µM [inhibitor, partial curve]"}
{"smiles": "COc1ccc(-c2oc3ccccc3c(=O)c2OCC(=O)O)cc1", "Potency": "inconclusive: 31.6 µM [inhibitor, partial curve]"}
{"smiles": "COc1cccc(C2CC(=O)N3CN(c4cccc(Cl)c4C)CSC3=C2C#N)c1OC", "note": "(configuration not stated)", "Potency": "inconclusive: 39.8 µM [inhibitor, single point]"}
{"smiles": "C[C@@H]1c2cccc(O)c2C(O)=C2C(=O)[C@@]3(O)C(O)=C(C(N)=O)C(=O)[C@@H](N(C)C)[C@@H]3[C@@H](O)[C@@H]21", "activity change, negative = inhibition": "inactive: -22.8% [at 25.5 µM]"}
{"smiles": "COc1ccccc1N1C(=O)S/C(=C\\c2cc(C)n(C)c2C)C1=O", "Potency": "inconclusive: 35.5 µM [inhibitor, single point]"}
{"smiles": "CCN(CC)c1ccc(C=Nc2ccccc2)c(O)c1", "Potency": "inconclusive: 28.2 µM [inhibitor, partial curve]"}
{"smiles": "COc1ccc(C(c2c(C)[nH]n(-c3ccccc3)c2=O)c2c(C)[nH]n(-c3ccccc3)c2=O)cc1OC", "Potency": "inconclusive: 0.794 µM [inhibitor, full curve]"}
{"smiles": "COc1ccc(OC)c2[nH]c(=O)c(CCNC(=O)C(C)C)cc12", "Potency": "inconclusive: 28.2 µM [inhibitor, single point]"}
{"smiles": "CC(C)c1ccc(CNc2ccc(N3CCOCC3)cc2)cc1", "Potency": "inconclusive: 35.5 µM [inhibitor, single point]"}
{"smiles": "COc1ccc(C2CC(O)(c3ccccc3)Oc3cc(OC)ccc32)cc1", "note": "(configuration not stated)", "Potency": "inconclusive: 35.5 µM [inhibitor, single point]"}
{"smiles": "Fc1ccc(-c2csc3ncnc(Nc4ccc(N5CCOCC5)cc4)c23)cc1", "Potency": "inconclusive: 39.8 µM [inhibitor, single point]"}
{"smiles": "CCOC(=O)c1sc2nc(N3CCOCC3)c3c(c2c1N)CCC3", "Potency": "inconclusive: 31.6 µM [inhibitor, partial curve]"}
{"smiles": "C=CCn1c(=O)c2ccccc2n2c(SCc3nc(N)nc(Nc4ccccc4C)n3)nnc12", "Potency": "inconclusive: 39.8 µM [inhibitor, single point]"}
{"smiles": "Nc1nc(CSCc2ccccc2)nc(N2CCOCC2)n1", "activity change, negative = inhibition": "inactive: -11.7%"}
{"smiles": "O=c1c2[nH]c3cccc(Cl)c3c2ncn1Cc1ccco1", "Potency": "inconclusive: 39.8 µM [inhibitor, single point]"}
{"smiles": "O=C(NC1CC1)C1CCN(C2CCN(C(=O)/C=C/c3cccc(F)c3F)CC2)CC1", "activity change, negative = inhibition": "inactive: 4.35%"}
{"smiles": "CC(=O)Nc1ccc(S(=O)(=O)Nc2nc3ccccc3nc2Nc2ccc(S(N)(=O)=O)cc2)cc1", "Potency": "inconclusive: 1.78 µM [inhibitor, full curve]"}
{"smiles": "NCCCCCCCCCCNS(=O)(=O)c1cccc2c(Cl)cccc12", "activity change, negative = inhibition": "inactive: -5.14%"}
{"smiles": "COc1ccc(NC(=O)c2cc(-c3ccc(OC)c(OC)c3)on2)cc1OC", "Potency": "inconclusive: 10 µM [inhibitor, partial curve]"}
{"smiles": "CN1CCN(S(=O)(=O)c2ccc(N3CCc4ccccc4C3)nc2)CC1", "activity change, negative = inhibition": "inactive: -13.3%"}
{"smiles": "CC(C1CC2CCC1C2)n1c(-c2ccco2)n[nH]c1=S", "note": "(configuration not stated)", "Potency": "inconclusive: 39.8 µM [inhibitor, single point]"}
{"smiles": "CCOC(=O)C(=O)N1CCN(c2cc3c(cc2[N+](=O)[O-])n(C)c(=O)n3C)CC1", "activity change, negative = inhibition": "inactive: -2.19%"}
{"smiles": "CSc1ccccc1C(=O)NCCSc1ccccc1", "activity change, negative = inhibition": "inactive: 6.11%"}
{"smiles": "CC(=O)Oc1ccc(C(=O)Nc2ccc3c(c2)C(=O)N(CCC(=O)O)C3=O)cc1", "Potency": "inconclusive: 31.6 µM [inhibitor, partial curve]"}
{"smiles": "CCOC(=O)COn1c(=O)c(-c2cccs2)[n+]([O-])c2ccccc21", "Potency": "inconclusive: 35.5 µM [inhibitor, single point]"}
{"smiles": "COc1cccc(C(=O)Nc2c3c(nn2-c2cccc(C)c2C)CS(=O)(=O)C3)c1OC", "Potency": "inconclusive: 39.8 µM [inhibitor, single point]"}
{"smiles": "Cn1cccc1CC(=O)N/N=C/c1ccco1", "Potency": "inconclusive: 28.2 µM [inhibitor, single point]"}
{"smiles": "O=CC1=C(N2CCOCC2)/C(=C/c2ccc(Cl)cc2)CC1", "Potency": "inconclusive: 28.2 µM [inhibitor, single point]"}
{"smiles": "Cc1cccn2c(=O)c(/C=N/O)c(NCc3ccccc3)nc12", "Potency": "inconclusive: 31.6 µM [inhibitor, single point]"}
{"smiles": "COC(=O)c1sc(NC(=O)c2cc(-c3ccccc3)nc3ccccc23)c(C#N)c1C", "activity change, negative = inhibition": "inactive: -1.41%"}
{"smiles": "C=CCc1cccc(/C=N/NC(=O)c2ccccc2Br)c1O", "Potency": "active: 25.1 µM"}
{"smiles": "COc1ccc(F)c(-c2nc(CN3CCC(c4ccccc4)CC3)c(C)o2)c1", "Potency": "inconclusive: 22.4 µM [inhibitor, single point]"}
{"smiles": "CCCCCCCc1nc2nc(C)c(Br)c(=O)n2[nH]1", "activity change, negative = inhibition": "inactive: -17.8%"}
{"smiles": "C=CCNCCOc1cccc(Br)c1", "activity change, negative = inhibition": "inactive: 4.63%"}
{"smiles": "Nn1cnnc1N/N=C\\c1ccc(-c2ccccc2[N+](=O)[O-])o1", "Potency": "active: 4.47 µM"}
{"smiles": "COc1ccccc1C(=O)Nc1sc(C(=O)N2CCCC2)c(C)c1C#N", "Potency": "inconclusive: 39.8 µM [inhibitor, single point]"}
{"smiles": "COc1cc(CC(NC(C)=O)C(=O)NC2CCN(c3nc(C)cc(C)c3C#N)CC2)cc(OC)c1", "note": "(configuration not stated)", "Potency": "inconclusive: 3.98 µM [inhibitor, single point]"}
{"smiles": "CSc1ccc(-c2nc(O)c3cnccn23)cc1", "Potency": "inconclusive: 35.5 µM [inhibitor, single point]"}
{"smiles": "COc1cc(C(C(=O)NC(C)(C)C)N(Cc2ccc3c(c2)OCO3)C(=O)c2cnccn2)cc(OC)c1OC", "note": "(configuration not stated)", "activity change, negative = inhibition": "inactive: 5.84%"}
{"smiles": "CCc1ccccc1N(CC)C(=O)CCc1nc(-c2ccc(C)cc2)no1", "Potency": "inconclusive: 39.8 µM [inhibitor, single point]"}
{"smiles": "CCOc1ccc(NC(=O)CN2CCN(CC(=O)Nc3cc(OC)cc(OC)c3)CC2)cc1", "activity change, negative = inhibition": "inactive: 5.31%"}
{"smiles": "O=C(Nc1ccccc1)NC1(C(=O)NCc2cccs2)CCCCC1", "Potency": "inconclusive: 39.8 µM [inhibitor, single point]"}
{"smiles": "NC(=O)c1ccc(NC(=O)c2cnc3ccccc3n2)cc1", "Potency": "inconclusive: 8.91 µM [inhibitor, partial curve]"}
{"smiles": "Cc1ccc2cc(C#N)c(NCc3ccco3)nc2c1", "Potency": "inconclusive: 28.2 µM [inhibitor, partial curve]"}
{"smiles": "CC(C)C(=O)NNC(=O)c1cc2sccc2s1", "activity change, negative = inhibition": "inactive: -22%"}
{"smiles": "Cc1cccc(Nc2c([N+](=O)[O-])cc(C(=O)N3CC(=O)Nc4ccccc43)cc2[N+](=O)[O-])c1", "activity change, negative = inhibition": "inactive: 3.7%"}
{"smiles": "C=CCN=C1NN=C(c2cc(C)n(CC=C)c2C)CS1", "activity change, negative = inhibition": "inactive: -20.9%"}
{"smiles": "Cc1ccc2nc(Nc3ccccc3)c(/C=N/O)c(=O)n2c1", "activity change, negative = inhibition": "inactive: 3.9%"}
{"smiles": "CC(=O)c1c(N2CCN(C)CC2)[nH]c(-c2ccccc2)nc1=S", "activity change, negative = inhibition": "inactive: -4.79%"}
{"smiles": "N#Cc1cc[n+](CC(=O)c2ccc(NC(=O)c3ccccc3)cc2)cc1", "activity change, negative = inhibition": "inactive: -9.68%"}
{"smiles": "Nc1nccc(-c2cc(-c3ccc(Cl)cc3Cl)no2)n1", "Potency": "inconclusive: 35.5 µM [inhibitor, single point]"}
{"smiles": "COc1ccc2c(c1)c1nnc(SCC(=O)N3C(C)CCCC3C)nc1n2C", "note": "(configuration not stated)", "activity change, negative = inhibition": "inactive: 3.62%"}
{"smiles": "Cc1ccnc(NC(=O)CCC(=O)N(CC(=O)NC2CCCCC2)Cc2ccccc2)c1", "activity change, negative = inhibition": "inactive: -1.2%"}
{"smiles": "CCOC(=O)C(=NC1CCS(=O)(=O)C1)NNc1ccc(Br)cc1", "note": "(configuration not stated)", "activity change, negative = inhibition": "inactive: -12.7%"}
{"smiles": "C=CCn1c(COc2cccc3ccc(C)nc23)nnc1SCC(N)=O", "Potency": "inconclusive: 28.2 µM [inhibitor, single point]"}
{"smiles": "CC(=O)Nc1ccc(NC(=O)COc2ccc([N+](=O)[O-])cc2)cc1", "activity change, negative = inhibition": "inactive: 19.4%"}
{"smiles": "Cc1ccc(OCC(=O)c2cc(C)n(Cc3ccco3)c2C)c([N+](=O)[O-])n1", "Potency": "inconclusive: 35.5 µM [inhibitor, single point]"}
{"smiles": "O=S(=O)(NCC(c1cccnc1)N1CCOCC1)c1ccc(Cl)cc1", "note": "(configuration not stated)", "Potency": "inconclusive: 20 µM [inhibitor, single point]"}
{"smiles": "COc1ccc2c(C)c(C(=O)NCC(C)O)oc2c1OC", "note": "(configuration not stated)", "Potency": "inconclusive: 31.6 µM [inhibitor, partial curve]"}
{"smiles": "Cc1nc2c(cc1C(=O)N/N=C/c1ccc(O)c(O)c1)c(=O)n(C)c(=O)n2C", "Potency": "inconclusive: 35.5 µM [inhibitor, single point]"}
{"smiles": "CNC(=S)Nc1ccc(-c2nc3ccc(C)cc3s2)cc1", "Potency": "inconclusive: 31.6 µM [inhibitor, partial curve]"}
{"smiles": "C/C(=N\\Nc1nc(-c2ccccc2)cs1)c1cccs1", "Potency": "inconclusive: 28.2 µM [inhibitor, single point]"}
{"smiles": "Cc1ccc(-c2nnc(C)c(N3CCCC3)n2)cc1", "activity change, negative = inhibition": "inactive: -1.4%"}
{"smiles": "NC(=O)c1ccc2c(=O)n3c(-c4cc(Cl)c(N)c(Cl)c4)csc3nc2c1", "Potency": "inconclusive: 31.6 µM [inhibitor, partial curve]"}
{"smiles": "O=C(Cn1cc(C(F)(F)F)ccc1=O)Nc1ccccc1", "activity change, negative = inhibition": "inactive: 3.56%"}
{"smiles": "CCOc1ccc(NS(=O)(=O)c2ccc3c(c2)N(C(C)=O)CC3)cc1", "Potency": "inconclusive: 22.4 µM [inhibitor, single point]"}
{"smiles": "COc1ccc(CN(C(=O)c2ccc(-c3ccccc3)[nH]2)C(C(=O)NCC2CCCO2)c2ccc(C)o2)cc1", "note": "(configuration not stated)", "Potency": "inconclusive: 31.6 µM [inhibitor, single point]"}
{"smiles": "O=C(O)CCCC(=O)N1CCN(c2nc(-c3ccccc3)c3ccccc3n2)CC1", "Potency": "inconclusive: 31.6 µM [inhibitor, partial curve]"}
{"smiles": "CCCCN(CC)c1nc(N)c(C#N)c(CC#N)c1C#N", "Potency": "inconclusive: 28.2 µM [inhibitor, single point]"}
{"smiles": "Cc1cc(=O)oc2cc(NC(=O)CCCC(=O)O)ccc12", "Potency": "inconclusive: 31.6 µM [inhibitor, partial curve]"}
